# In PubChem BioAssay AID1346428 (National Center for Advancing Translational Sciences (NCATS), 2018):
# “And” between values parts separate entries of the source, which are not always exact repeats. Equal entries are not always repeated. About 1,200 (2.5%) of roughly 48,000 compounds were called active. Not shown: some 2% with an inconclusive outcome.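 How the source made its calls: active means activation of at least 60% and not above a set upper limit (about 1 call in 100 departs from these limits); inconclusive means activation of 40% to 60%, or above that upper limit; inactive means activation under 40%.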 This is one part of the list.
# Molecular target: Probable G-protein coupled receptor 32 (Homo sapiens) (UniProt O75388)
# Sequence of UniProt O75388 (O75388 whole entry, looked up): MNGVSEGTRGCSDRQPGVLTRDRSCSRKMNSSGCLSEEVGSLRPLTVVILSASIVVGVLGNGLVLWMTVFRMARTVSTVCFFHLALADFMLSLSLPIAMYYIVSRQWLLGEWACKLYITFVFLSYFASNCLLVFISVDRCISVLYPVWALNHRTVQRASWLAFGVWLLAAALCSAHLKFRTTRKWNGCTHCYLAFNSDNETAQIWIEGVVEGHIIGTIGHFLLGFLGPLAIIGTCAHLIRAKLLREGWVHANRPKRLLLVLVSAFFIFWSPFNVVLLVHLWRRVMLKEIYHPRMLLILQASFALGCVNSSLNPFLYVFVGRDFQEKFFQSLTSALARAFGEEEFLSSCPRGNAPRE
# Experiment: qHTS for Agonists of Human Resolvin D1 Receptor DRV1; further: 0% is about no effect
# Settings: CHO-K1 GPR32 beta-arrestin PathHunter luminescence, 90 min; at 76.9 µM; hits give high values; zero percent set by DMSO-only wells
# In short: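 PathHunter beta-arrestin recruitment in CHO-K1 cells stably expressing ProLink-tagged GPR32. Cells were exposed to compound for 90 min at 37 C, then chemiluminescence was read after 1 h detection at ambient temperature; DMSO served as basal control.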
row,SMILES,activation
1,O=C(c1ccccc1Cl)n1nc(-c2ccco2)nc1NCc1cccs1,inactive: 2.91%
2,CCOC(=O)c1ccc(CN(Cc2ccc(F)cc2)S(=O)(=O)c2ccc(F)c(C(=O)Nc3cc(Cl)ccc3OC)c2)cc1,inactive: -9.47%
3,Cc1ccc(N2CCN(C(=O)c3c(C)oc4ncn(C)c(=O)c34)CC2)c(C)c1,inactive: -6.71%
4,CCN(CC)c1ccc(NC(=O)COCc2cc(-c3ccc4c(c3)OCO4)on2)c(C)c1,inactive: -29.5%
5,Cc1ccccc1Cn1c2ccccc2c2cnn(CC(=O)NCc3cccc(Cl)c3)c(=O)c21,inactive: 3.24%
6,Cc1ccc(NC(=O)CSc2nc3c(oc4ccccc43)c(=O)n2Cc2ccco2)cc1F,inactive: -3.85%
7,Cc1nc(-n2nc(C)c(Cc3ccc(Cl)cc3)c2C)sc1C(=O)N1CCC(C)CC1,inactive: -1.2%
8,CC(C)c1ccc(OCC(=O)Nc2ccc(S(=O)(=O)Nc3ncccn3)cc2)cc1,inactive: 21.4%
9,OC1(c2ccc(Cl)cc2)CCNCC1,inactive: -23.8%
10,CC(=O)N1CCCc2cc(S(=O)(=O)N(C)CC(=O)Nc3ccc(C(C)C)cc3)ccc21,inactive: 19.4%
11,COc1ccc(CNC(=O)c2cc3c(=O)n(Cc4ccco4)ccc3nc2C)c(OC)c1,inactive: -12.8%
12,Cn1cc(-c2cc3n(n2)CCC(=O)N3CCCC(=O)Nc2ccc(Cl)cc2)c2ccccc21,inactive: -5.72%
13,O=C1CC(c2ccccc2)Sc2ccccc2N1Cc1ccccc1F (configuration not stated),inactive: -9.18%
14,CC(C)OC(=O)c1c(NC(=O)c2cccc(C(F)(F)F)c2)sc2c1CCCC2,inactive: -3.32%
15,COc1cccc(CNC(=O)c2sc3nc[nH]c(=O)c3c2C)c1,inactive: -4.51%
16,COc1ccc(CNC(=O)CCC2N=C3c4ccccc4N=C(SCC(=O)NCCc4ccc(OC)c(OC)c4)N3C2=O)cc1 (configuration not stated),inactive: -13.4%
17,CN(C)CCCSc1ccccc1NC(=O)/C=C/c1ccccc1,inactive: 3.52%
18,COc1ccc(NC(=O)Cn2ccn(-c3ccc(F)c(F)c3)c(=O)c2=O)cc1Cl,inactive: -5.65%
19,COCCn1c(C)cc(O)c(C(c2ccccc2)N2CCN(c3ccccc3F)CC2)c1=O (configuration not stated),inactive: -13.2%
20,COc1cc([C@@H]2c3cc4c(cc3[C@H](O)[C@H]3COC(=O)[C@H]23)OCO4)cc(OC)c1OC,inactive: 36.1%
21,CCS(=O)(=O)c1ccc(C(=O)N2CCN(c3nc4c(OC)ccc(C)c4s3)CC2)cc1,inactive: 10.2%

row,SMILES,activation
1,CC(Nc1ccc(-c2nc(-c3cccnc3)no2)cc1[N+](=O)[O-])c1ccccc1 (configuration not stated),inactive: 5.98%
2,O=C(O)CN(CCOCCOCCN(CC(=O)O)CC(=O)O)CC(=O)O,inactive: 32.5% and inactive: 0.879%
3,O=C(Cn1ncc2ccsc2c1=O)N1CCN(c2ccc(Cl)cc2)CC1,inactive: 38.5%
4,Cc1ccc(NC(=O)CCn2nc(C)c3c(C)n(-c4ccccc4)nc3c2=O)cc1Cl,inactive: 4.09%
5,COc1ccccc1-c1nc(CNC(=O)NC2CCCCC2)c(C)o1,inactive: 20.4%
6,COc1cccc(NC(=O)CSc2cc(C)c3ccccc3n2)c1,inactive: 19%
7,Cc1ccc2c(Sc3ccc(Cl)cc3)c(C(=O)N3CCCCC3)[nH]c2c1,inactive: -36.1%
8,COc1ccc(NC(=O)c2c(-c3ccc(C)cc3)nnc3ccccc23)cc1OC,inactive: -23.4%
9,CC1CCCCN1Cc1nc2c(c(=O)n(C)c(=O)n2C)n1Cc1ccc(Br)cc1 (configuration not stated),inactive: -2.54%
10,CC(C)c1ccc(NC(=O)c2cn(C3CCCC3)c(=O)c3c2c2ccccc2n3C)cc1,inactive: -5.11%
11,CC(C)C[C@H](NC(=O)[C@@H](O)[C@H](N)Cc1ccccc1)C(=O)O,inactive: 3.24%
12,CCCOc1ccc(NC(=O)CC2C(=O)N(c3cccc(OC)c3)C(=O)N2CCc2ccncc2)cc1 (configuration not stated),inactive: -20.8%
13,Cc1cc(C)c(NC(=O)CSc2nc(=O)n(Cc3ccncc3)c3c2CCC3)c(C)c1,inactive: -1.8%
14,O=C(CSc1nnc2scc(-c3ccc(Cl)cc3)n12)Nc1ccc(F)cc1,inactive: -11.9%
15,Cc1ccc(NC(=O)n2ncc3c(C)cccc32)c(C)c1,inactive: -18.9%
16,CCc1nn(CC(=O)N2CCN(c3cccc(C)c3)C(C)C2)c(=O)c2cc3sccc3n12 (configuration not stated),inactive: -8.42%
17,CCOCCCNC(=O)C(c1ccc(C)cc1)N(Cc1ccc2c(c1)OCO2)C(=O)c1ccccc1O (configuration not stated),inactive: -15.9%
18,COc1cccc(C2=CC(c3ccccc3F)n3ncc(C(=O)Nc4ccc(F)cc4)c3N2)c1 (configuration not stated),active: 70.5%
19,Cc1ccc(Nc2c(-c3cccnc3)nc3ccc(C)cn23)cc1,inactive: -20.9%
20,COC(=O)[C@H]1[C@H]2C[C@@H]3c4[nH]c5cc(OC)ccc5c4CCN3C[C@H]2C[C@@H](OC(=O)c2cc(OC)c(OC)c(OC)c2)[C@@H]1OC,inactive: -5.02% and inactive: -18.6%
21,CCc1ccc(CNC(=O)c2ccc3c(c2)c(C)c(C)n3Cc2ccccc2)cc1,inactive: -21.5%

row,SMILES,activation
1,O=C(NC1CCCCC1)c1ccc(CSc2nc3ccncc3n2Cc2cccc(F)c2)cc1,inactive: -12%
2,Cc1ccc(N(C)C(=O)Cn2ncc3c([nH]c4ccccc43)c2=O)cc1C,inactive: 48.4%
3,O=C(CSc1nc2c([nH]c3ccccc32)c(=O)n1-c1ccccc1)Nc1cccc(C(F)(F)F)c1,inactive: -28.9%
4,CCOC(=O)N1CCc2c(sc(NCc3cc(OC)ccc3OC)c2C(=O)Nc2cc(OC)ccc2OC)C1,inactive: 10.9%
5,CCOCCCNC(=O)C1CCN(c2nc3ccc(C)cc3[nH]2)CC1,inactive: -1.18%
6,COC(=O)c1cc(-c2ccc(Cl)cc2)c2c(=O)[nH]c(=O)n(C)c2n1,inactive: 35%
7,Cc1ccc(S(=O)(=O)NC(=O)NC2CCCCCCC2)cc1,inactive: -6.01%
8,Cc1ccc(Cn2c(=O)n(CCc3ccccc3)c(=O)c3sc4ccccc4c32)cc1,inactive: 7.41%
9,COc1ccc(N2CCN(C(=O)Cn3cnc4sc(C)c(S(=O)(=O)N5CCCCC5)c4c3=O)CC2)cc1,inactive: -11.7%
10,Cc1ccc(NC(=O)CCn2cccn2)c(C)c1,inactive: -0.265%
11,COc1ccc(NC(=O)CCc2c(C)nn(-c3ccc(N4CCCC4)nn3)c2C)cc1Cl,inactive: -11.4%
12,O=C(Nc1nnc(S(=O)(=O)N2CCCCCC2)s1)c1ccc(Cl)cc1,inactive: 15.8%
13,COc1ccc(NC(=O)CC(C)S(=O)(=O)c2cc3c(cc2C)NC(=O)CO3)cc1OC (configuration not stated),inactive: 6.58%
14,Cc1ccc2c(=O)cc(C(=O)Nc3c(C(=O)c4ccc(F)cc4)oc4ccccc34)oc2c1C,inactive: -14.8%
15,CN=c1nc(-c2ccccc2)n(-c2ccccc2)s1,inactive: -2.25%
16,CSc1nn(CC(=O)Nc2cc(C)ccc2C)c(N)c1S(=O)(=O)c1ccccc1,inactive: 27.2%
17,COc1ccccc1CNC(=O)C1CCN(c2nnc(C)c3c(C)n(-c4ccccc4)nc23)CC1,inactive: -18.4%
18,CCOC(=O)Cn1c(=O)oc2cc(S(=O)(=O)N3CCN(c4ccc(F)cc4)CC3)ccc21,inactive: 12.8%
19,CCC(CC)C(=O)Nc1cc(-c2nc3cccnc3s2)ccc1C,inactive: -12%
20,Cc1cccc(C)c1OC(=O)CSc1nnc(-c2ccc3c(c2)OCO3)o1,inactive: -7.72%
21,Cc1ccc(NC(=O)CN2C(=O)CC(c3ccc(C)c(C)c3)=Nc3ccccc32)cc1,inactive: -0.68%

row,SMILES,activation
1,COc1ccc(CCNC(=O)c2c(C)oc3ncn(CC(C)C)c(=O)c23)c(OC)c1,inactive: -0.501%
2,COc1ccc(Nc2c(-c3ccsc3)nc3nc(C)cc(C)n23)cc1,inactive: -32.7%
3,CC(C)C(=O)Nc1nnc(S(=O)(=O)N2c3ccccc3CC2C)s1 (configuration not stated),inactive: -1.7%
4,COC(=O)c1c(C)sc(-c2c(-c3ccc(OC)c(F)c3)[nH]c3c2c(=O)n(C)c(=O)n3C)c1O,inactive: 29.5%
5,CCSc1nc2ccccc2c(OCc2cc(C(=O)OC)ccc2OC)c1C(=O)OC,inactive: -6.99%
6,Cc1ccc(C(C)C)c(OCC(=O)Nc2ccc(O)c(-c3nc4cc(Cl)ccc4o3)c2)c1,inactive: -27.6%
7,CCCOc1cccc(C(=O)Nc2cccc(NC(=O)c3ccc(Cl)cc3Cl)c2)c1,inactive: -6.6%
8,O=C1CCSC2(C(=O)N(Cc3ccc(F)cc3)c3ccccc32)N1c1cccc(F)c1 (configuration not stated),inactive: -21.7%
9,CCN1C(=O)c2ccccc2S(=O)c2ccc(C(=O)NCc3ccc(Cl)cc3)cc21 (configuration not stated),inactive: -27.2%
10,CCN(c1cccc(C)c1)S(=O)(=O)c1c(C)nc2sc(C)cn2c1=O,inactive: -14.8%
11,O=C(Cn1cc(C(=O)c2cccs2)c2ccccc21)Nc1ccc(Br)cc1,inactive: -15.4%
12,CCOC(=O)c1c(-c2ccccc2)oc2ccc(OCc3cccc(Br)c3)cc12,inactive: -13.6%
13,COc1ccc(C(=O)Oc2cc(-c3ccc(OC)c(OC)c3)cc(=O)c3c(C)oc(C)c23)cc1,inactive: -18.1%
14,CCS(=O)(=O)Nc1ccc(-c2cn3c(C)csc3n2)cc1,inactive: -8.78%
15,COc1cccc(C(c2sc3nc(-c4ccco4)nn3c2O)N2CCN(C)CC2)c1 (configuration not stated),inactive: -9.37%
16,COc1ccc(CNC(=O)CN(C)S(=O)(=O)c2ccc3c(c2)c(=O)n(C)c(=O)n3C)cc1,inactive: 10.8%
17,Cc1ccc(CNC(=O)Cn2c3ncccc3c(=O)n2-c2ccc(C)cc2)cc1,inactive: -20.7%
18,COc1ccc(C)c2sc(N3CCN(C(=O)c4ccco4)CC3)nc12,active: 86%
19,CCOc1ccc(CNC(=O)CSc2c3c(nc4ccc(Cl)cc24)CCCC3)cc1,inactive: -6.74%
